In patent publication US11479601B2, “Antibodies specific to Sonic Hedgehog and method of use thereof” (The Regents of the University of California, priority 2016, dated 2022):

Experiments:
Shh = assay: Western blot binding to purified and cell-expressed Shh; parameters: species or system human; conditions: purified Shh and Shh expressed endogenously and/or exogenously in cells
Text: FIGS. 15A and 15B. Antibodies bind target SHh via Western blot. (FIG. 15A) Purified, recombinant human Shh (19.7 kDa, >98% purity by SDS-PAGE) was probed by the indicated antibodies. (FIG. 15B) Cell lysates from HEK-293T cells (PHX—Phoenix cells), with or without exogenous expression of full-length Shh, and A549 cells were probed with the antibodies produced by clones 2G4 and 2D9. Full-length Shh: ˜50 kDa; N-terminal Shh: ˜19 kDa; C-terminal Shh: ˜25 kDa. Sample 2 was lysate from PHX cells transfected with full-length Shh DNA for about 24 hours. The exogenously expressed Shh appears to be cleaved into N-terminal and C-terminal Shh peptides. Both PHX cells and A549 cells endogenously express Shh.

[1] = target: T1, cell-surface Sonic Hedgehog on A549 cells (Homo sapiens, UniProt Q15465); assay: FACS of non-permeabilized A549 cells labeled with anti-Shh antibodies; format: binding; conditions: A549, without membrane permeabilization
T1 construct: recognize cell-surface expression of Sonic Hedgehog, A549 cells were labeled with in-house antibodies; endogenous in cells; host or cells: A549
Procedure: A549, 293T or 293T (+pCMV Shh) cells were labeled with Sonic Hedgehog (Shh) antibody (Abcam 53281, 1:100) or therapeutic test antibodies (1:100) for 1 hour at RT post serum blocking. Following two PBS washes, a FITC-conjugated secondary antibody (Abcam 97029, 1:100) or an Alexa-Fluor 647 (Invitrogen, 1:1000) was used to label cells. Samples were screened by flow cytometry using an Accuri™ C6 machine (BD Biosciences). For fluorescence activated cell sorting, samples were sorted using an S3e™ Cell Sorter (Bio-Rad) and the Shh+ population was collected. For all experiments, cells processed without primary antibody served as a negative control. Experiments were performed in duplicates or triplicates.
To corroborate that the two anti-Shh antibodies, 1C11-2G4 and 1C11-2D9, recognize cell-surface expression of Sonic Hedgehog, A549 cells were labeled with in-house antibodies and sorted via Fluorescence Activated Cell Sorting (FACS) without membrane permeabilization. […] BMC Cancer. 15:84 (2015); Singh S, Trevino J, Bora-Singhal N, Coppola D, Haura E, Altiok S, Chellappan S P. EGFR/Src/Akt signaling modulates Sox2 expression and self-renewal of stem-like side-population cells in non-small cell lung cancer. Mol Cancer. 11:73 (2012); Cochrane C R, Szczepny A, Watkins D N, Cain J E. Hedgehog Signaling in the Maintenance of Cancer Stem Cells. Cancers (Basel). […]

B1: 2D9: purified mouse monoclonal C-terminal Shh antibody from hybridoma sub-clone 2D9 of clone 1C11, IgG1 kappa (antibody)
heavy: EVKLVESGGGLVKPGGSLKLSCAASGFTFSSYTMSWVRQTPAKRLEWVATISSGGGNTYYPDSVKGRFTISRDNARNTLYLQMSSLRSEDTAMYYCARDYRSLFAYWGQGTLVTVSAAKTTPPSVYPLAPGSAAQTNSMVTLGCLVKGYFPEPVTVTWNSGSLSSGVHTFPAVLQSDLYTLSSSVTVPSSTWPSETVTCNVAHPASSTKVDKKIVPRDCGCKPCICTVPEVSSVFIFPPKPKDVLTITLTPKVTCVVVDISKDDPEVQFSWFVDDVEVHTAQTQPREEQFNSTFRSVSELPIMHQDWLNGKEFKCRVNSAAFPAPIEKTISKTKGRPKAPQVYTIPPPKEQMAKDKVSLTCMITDFFPEDITVEWQWNGQPAENYKNTQPIMDTDGSYFIYSKLNVQKSNWEAGNTFTCSVLHEGLHNHHTEKSLSHSPGK
light: QIVLTQSPAIMSASPGEKVTITCSASSSVSYMHWFQQKPGTSPKLWIYSTSNLASGVPARFSGSGSGTSYSLTISRMEAEDAATYYCQQRSSYPFTFGSGTKLEIKRADAAPTVSIFPPSSEQLTSGGASVVCFLNNFYPKDINVKWKIDGSERQNGVLNSWTDQDSKDSTYSMSSTLTLTKDEYERHNSYTCEATHKTSTSPIVKSFNRNEC
Shh
  binding to Shh by Western blot: bound to purified Shh
[1]
  Shh+ cells recognized from a mixed population (FACS): 0.05%
